# Data from the supplement of paper PMC8728848.
# This is one part of the list.
# B1: OrfX (Escherichia coli), Q9X4B6_ECOLX (protein)
# chain: MIKIARIAVTLGLLSSLGAQAYAAGLVVNDNDLRNDLAWLSDRGVIHLSLSTWPLSQEEIARALKKAKPSYSSEQVVLARINQRLSALKADFRVTGYTSTDQPGTPQGFGQTQPADNSLGLAFNNSGEWWDVHLQGNVEGGERISNGSRFNANGAYGAVKFWNQWLSFGQVPQWWGPGYEGSLIRGDAMRPMTGFLMQRAEQAAPETWWLRWVGPWQYQISASQMNQYTAVPHAKIIGGRFTFTPFQSLELGASRIMQWGGEGRPQSFSSFWDGFTGHDNTGTDNEPGNQLAGFDFKFKLEPTLGWPVSFYGQMVGEDESGYLPSANMFLGGVEGHHGWGKDTVNWYVEAHDTRTNMSRTNYSYTHHIYKDGYYQQGYPLGDAMGGDGQLIAGKVELITEDNQRWSTRLVYAKVNPENQSINKAFPHADTLKGLQLGWSGDVYQSVRLNTSLWYTNANNSDSDDVGASAGIEIPFSL
# What was measured:
# Assay in all cases: glycan array binding signal (z-score within array); higher = stronger binding
# Conditions in all cases: glycan notation: IUPAC condensed, linker removed
# [1] = target: Man(a1-3)[Man(a1-6)]Man(a1-6)[Man(a1-3)]Man
# How it was run: (§1)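 Glycan array data were curated from 3228 arrays in the Consortium for Functional Glycomics database and kept only where the protein sequence was available. Glycan names were converted to IUPAC-condensed notation, and columns mapping to the same glycan were averaged. The binding signal is a within-array Z-score, averaged across arrays of the same protein sequence at different concentrations or buffers and across linkers. Negative Z-scores can be read as non-binding.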
# [2] = target: Man(a1-3)[Man(a1-6)]Man(a1-6)[Man(a1-3)]Man(b1-4)GlcNAc(b1-4)GlcNAc
# How it was run: as §1
# [3] = target: Man(a1-3)[Man(a1-6)]Man(b1-4)GlcNAc(b1-4)GlcNAc
# How it was run: as §1
# [4] = target: Man(a1-3)[Man(a1-6)]Man(b1-4)GlcNAc(b1-4)[Fuc(a1-6)]GlcNAc
# How it was run: as §1
# [5] = target: Man(a1-6)Man
# How it was run: as §1
# [6] = target: Man(b1-4)GlcNAc
# How it was run: as §1
# [7] = target: Neu5Ac(a2-3)Gal
# How it was run: as §1
# [8] = target: Neu5Ac(a2-3)Gal(b1-3)GalNAc
# How it was run: as §1
# [9] = target: Neu5Ac(a2-3)Gal(b1-3)GalNAc(b1-3)Gal(a1-4)Gal(b1-4)Glc
# How it was run: as §1
# [10] = target: Neu5Ac(a2-3)Gal(b1-3)GalNAc(b1-4)[Neu5Ac(a2-3)]Gal(b1-4)Glc
# How it was run: as §1
# [11] = target: Neu5Ac(a2-3)Gal(b1-3)GalNAc(b1-4)[Neu5Ac(a2-8)Neu5Ac(a2-3)]Gal(b1-4)Glc
# How it was run: as §1
# [12] = target: Neu5Ac(a2-3)Gal(b1-3)GalNAc6S
# How it was run: as §1
# [13] = target: Neu5Ac(a2-3)Gal(b1-3)GlcNAc
# How it was run: as §1
# [14] = target: Neu5Ac(a2-3)Gal(b1-3)GlcNAc(b1-2)Man(a1-3)[GlcNAc(b1-4)][Neu5Ac(a2-3)Gal(b1-3)GlcNAc(b1-2)Man(a1-6)]Man(b1-4)GlcNAc(b1-4)GlcNAc
# How it was run: as §1
# [15] = target: Neu5Ac(a2-3)Gal(b1-3)GlcNAc(b1-3)Gal(b1-3)GlcNAc
# How it was run: as §1
# [16] = target: Neu5Ac(a2-3)Gal(b1-3)GlcNAc(b1-3)Gal(b1-4)GlcNAc
# How it was run: as §1
# [17] = target: Neu5Ac(a2-3)Gal(b1-3)GlcNAc(b1-3)GalNAc
# How it was run: as §1
# [18] = target: Neu5Ac(a2-3)Gal(b1-3)GlcNAc(b1-6)GalNAc
# How it was run: as §1
# [19] = target: Neu5Ac(a2-3)Gal(b1-3)GlcNAc6S
# How it was run: as §1
# [20] = target: Neu5Ac(a2-3)Gal(b1-3)[Fuc(a1-4)]GlcNAc
# How it was run: as §1
# [21] = target: Neu5Ac(a2-3)Gal(b1-3)[Fuc(a1-4)]GlcNAc(b1-3)Gal(b1-3)[Fuc(a1-4)]GlcNAc
# How it was run: as §1
# [22] = target: Neu5Ac(a2-3)Gal(b1-3)[Fuc(a1-4)]GlcNAc(b1-3)Gal(b1-4)[Fuc(a1-3)]GlcNAc
# How it was run: as §1
# [23] = target: Neu5Ac(a2-3)Gal(b1-3)[Neu5Ac(a2-3)Gal(b1-4)]GlcNAc
# How it was run: as §1
# [24] = target: Neu5Ac(a2-3)Gal(b1-3)[Neu5Ac(a2-6)]GalNAc
# How it was run: as §1
# [25] = target: Neu5Ac(a2-3)Gal(b1-3)[Neu5Ac(a2-6)]GlcNAc(b1-3)[Fuc(a1-3)[Gal(b1-4)]GlcNAc(b1-6)]Gal(b1-4)Glc
# How it was run: as §1
# [26] = target: Neu5Ac(a2-3)Gal(b1-4)Glc
# How it was run: as §1
# [27] = target: Neu5Ac(a2-3)Gal(b1-4)GlcNAc
# How it was run: as §1
# [28] = target: Neu5Ac(a2-3)Gal(b1-4)GlcNAc(b1-2)Man
# How it was run: as §1
# [29] = target: Neu5Ac(a2-3)Gal(b1-4)GlcNAc(b1-2)Man(a1-3)[GlcNAc(b1-2)Man(b1-4)GlcNAc(b1-2)Man(a1-6)]Man(b1-4)GlcNAc(b1-4)GlcNAc
# How it was run: as §1
# [30] = target: Neu5Ac(a2-3)Gal(b1-4)GlcNAc(b1-2)Man(a1-3)[Neu5Ac(a2-3)Gal(b1-4)GlcNAc(b1-2)Man(a1-6)]Man(b1-4)GlcNAc(b1-4)[Fuc(a1-6)]GlcNAc
# How it was run: as §1
# [31] = target: Neu5Ac(a2-3)Gal(b1-4)GlcNAc(b1-2)Man(a1-3)[Neu5Ac(a2-6)Gal(b1-4)GlcNAc(b1-2)Man(a1-6)]Man(b1-4)GlcNAc(b1-4)GlcNAc
# How it was run: as §1
# [32] = target: Neu5Ac(a2-3)Gal(b1-4)GlcNAc(b1-2)[Neu5Ac(a2-3)Gal(b1-4)GlcNAc(b1-6)]Man(a1-6)[Neu5Ac(a2-3)Gal(b1-4)GlcNAc(b1-2)Man(a1-3)]Man(b1-4)GlcNAc(b1-4)GlcNAc
# How it was run: as §1
# [33] = target: Neu5Ac(a2-3)Gal(b1-4)GlcNAc(b1-3)Gal
# How it was run: as §1
# [34] = target: Neu5Ac(a2-3)Gal(b1-4)GlcNAc(b1-3)Gal(b1-3)GlcNAc
# How it was run: as §1
# [35] = target: Neu5Ac(a2-3)Gal(b1-4)GlcNAc(b1-3)Gal(b1-4)GlcNAc
# How it was run: as §1
# [36] = target: Neu5Ac(a2-3)Gal(b1-4)GlcNAc(b1-3)Gal(b1-4)GlcNAc(b1-3)Gal(b1-4)GlcNAc
# How it was run: as §1
binder,measurement,setting,value
B1,glycan array binding signal (z-score),[1],-0.155
same,glycan array binding signal (z-score),[2],-0.385
same,glycan array binding signal (z-score),[3],-0.342
same,glycan array binding signal (z-score),[4],0.101
same,glycan array binding signal (z-score),[5],-0.129
same,glycan array binding signal (z-score),[6],-0.181
same,glycan array binding signal (z-score),[7],-0.121
same,glycan array binding signal (z-score),[8],-0.32
same,glycan array binding signal (z-score),[9],-0.332
same,glycan array binding signal (z-score),[10],-0.165
same,glycan array binding signal (z-score),[11],-0.243
same,glycan array binding signal (z-score),[12],-0.193
same,glycan array binding signal (z-score),[13],-0.22
same,glycan array binding signal (z-score),[14],-0.091
same,glycan array binding signal (z-score),[15],-0.096
same,glycan array binding signal (z-score),[16],-0.169
same,glycan array binding signal (z-score),[17],-0.337
same,glycan array binding signal (z-score),[18],-0.074
same,glycan array binding signal (z-score),[19],-0.301
same,glycan array binding signal (z-score),[20],-0.249
same,glycan array binding signal (z-score),[21],0.243
same,glycan array binding signal (z-score),[22],-0.183
same,glycan array binding signal (z-score),[23],-0.106
same,glycan array binding signal (z-score),[24],0.608
same,glycan array binding signal (z-score),[25],-0.357
same,glycan array binding signal (z-score),[26],-0.385
same,glycan array binding signal (z-score),[27],-0.31
same,glycan array binding signal (z-score),[28],7.89
same,glycan array binding signal (z-score),[29],-0.297
same,glycan array binding signal (z-score),[30],-0.317
same,glycan array binding signal (z-score),[31],-0.218
same,glycan array binding signal (z-score),[32],-0.287
same,glycan array binding signal (z-score),[33],-0.223
same,glycan array binding signal (z-score),[34],-0.228
same,glycan array binding signal (z-score),[35],-0.194
same,glycan array binding signal (z-score),[36],-0.227
